# Source: the supplement of paper PMC4967469
# Tests used:
# Experiment in all cases: Viability of human cancer cell lines after 72 h of drug (GDSC screen)
# piperlongumine = compound: COc1cc(/C=C/C(=O)N2CCC=CC2=O)cc(OC)c1OC [piperlongumine]; settings: top dose 10 µM
# Experimental: (§1)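 Human cancer cell lines in 384-well plates, medium with 10% serum, drug for 72 h over a 256-fold dose range (nine 2-fold or five 4-fold steps up to the top dose). Adherent lines were fixed and stained with the nucleic acid dye Syto60, suspension lines read with resazurin; signal relative to control wells, capped at 0 and 100%. One two-parameter sigmoid per drug and line, fitted in a mixed model over all curves with the slope shared within a line.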
# Salubrinal = compound: O=C(/C=C/c1ccccc1)NC(NC(=S)Nc1cccc2cccnc12)C(Cl)(Cl)Cl [Salubrinal]; settings: top dose 16 µM; top dose inferred
# Experimental: as §1
# PIK-93 = compound: CC(=O)Nc1nc(C)c(-c2ccc(Cl)c(S(=O)(=O)NCCO)c2)s1 [PIK-93]; settings: top dose 20 µM
# Experimental: as §1
# GW843682X = compound: COc1cc2ncn(-c3cc(OCc4ccccc4C(F)(F)F)c(C(N)=O)s3)c2cc1OC [GW843682X]; settings: top dose 0.256 µM
# Experimental: as §1
# GW 441756 = compound: Cn1cc(/C=C2\C(=O)Nc3cccnc32)c2ccccc21 [GW 441756]; settings: top dose 2 µM; top dose inferred
# Experimental: as §1
# ABT-263 = compound: CC1(C)CCC(c2ccc(Cl)cc2)=C(CN2CCN(c3ccc(C(=O)NS(=O)(=O)c4ccc(N[C@H](CCN5CCOCC5)CSc5ccccc5)c(S(=O)(=O)C(F)(F)F)c4)cc3)CC2)C1 [ABT-263]; settings: top dose 2 µM; top dose inferred
# Experimental: as §1
Cell Line,AUC (piperlongumine),IC50 (piperlongumine),AUC (Salubrinal),IC50 (Salubrinal),AUC (PIK-93),IC50 (PIK-93),AUC (GW843682X),IC50 (GW843682X),AUC (GW 441756),IC50 (GW 441756),AUC (ABT-263),IC50 (ABT-263)
"MPP-89 (mesothelioma, adherent)",0.774,5190 nM,0.865,> 16000 nM,0.747,8100 nM,0.797,165 nM,0.962,> 2000 nM,0.863,> 2000 nM
"A3-KAW (B-cell lymphoma, suspension)",0.636,1360 nM,0.853,8770 nM,0.693,3820 nM,0.677,44.4 nM,0.993,> 2000 nM,0.993,> 2000 nM
"HH (T-cell leukaemia, suspension)",0.734,3710 nM,0.885,> 16000 nM,0.395,586 nM,0.725,88 nM,0.966,> 2000 nM,0.688,505 nM
"L-540 (Hodgkin lymphoma, suspension)",0.732,2620 nM,0.871,12200 nM,0.783,7430 nM,0.799,107 nM,0.963,> 2000 nM,0.96,> 2000 nM
"LC4-1 (lymphoblastic leukaemia, suspension)",0.793,5140 nM,0.871,> 16000 nM,0.388,594 nM,0.66,46.8 nM,0.974,> 2000 nM,0.555,180 nM
"ST486 (Burkitt lymphoma, suspension)",0.797,4130 nM,0.843,9490 nM,0.275,314 nM,0.463,12.9 nM,0.99,> 2000 nM,0.787,762 nM
"COR-L88 (small cell lung carcinoma, adherent)",0.976,> 10000 nM,0.936,> 16000 nM,0.933,> 20000 nM,0.696,63.8 nM,0.968,> 2000 nM,0.688,469 nM
"NAMALWA (Burkitt lymphoma, suspension)",0.79,3710 nM,0.939,> 16000 nM,0.578,1970 nM,0.401,8.95 nM,0.991,> 2000 nM,0.99,> 2000 nM
"EW-18 (Ewing sarcoma, suspension)",0.927,> 10000 nM,0.854,14000 nM,0.385,588 nM,0.986,> 256 nM,0.986,> 2000 nM,0.342,44.1 nM
"D-247MG (glioma, adherent)",0.878,> 10000 nM,0.862,> 16000 nM,0.572,2120 nM,0.89,> 256 nM,0.98,> 2000 nM,0.822,1790 nM
"RPMI-6666 (Hodgkin lymphoma, suspension)",0.784,5180 nM,0.932,> 16000 nM,0.302,306 nM,0.637,41.5 nM,0.982,> 2000 nM,0.453,90.9 nM
"NCI-SNU-1 (stomach, suspension)",0.837,7020 nM,0.938,> 16000 nM,0.715,5200 nM,0.944,> 256 nM,0.985,> 2000 nM,0.794,953 nM
"SK-LMS-1 (soft tissue, adherent)",0.622,1330 nM,0.911,> 16000 nM,0.796,8840 nM,0.605,30.6 nM,0.909,> 2000 nM,0.942,> 2000 nM
"NCI-SNU-5 (stomach, suspension)",0.802,5020 nM,0.936,> 16000 nM,0.974,> 20000 nM,0.684,52.8 nM,0.936,> 2000 nM,0.86,1720 nM
"EB2 (Burkitt lymphoma, suspension)",0.838,5860 nM,0.979,> 16000 nM,0.37,568 nM,0.96,> 256 nM,0.99,> 2000 nM,0.989,> 2000 nM
"A253 (head and neck, adherent)",0.805,4880 nM,0.96,> 16000 nM,0.979,> 20000 nM,0.705,59.2 nM,0.927,> 2000 nM,0.962,> 2000 nM
"Daudi (Burkitt lymphoma, suspension)",0.822,4890 nM,0.781,5760 nM,0.853,12600 nM,0.625,33.7 nM,0.991,> 2000 nM,0.974,> 2000 nM
"KY821 (leukaemia, suspension)",0.836,5450 nM,0.953,> 16000 nM,0.942,> 20000 nM,0.445,11.6 nM,0.987,> 2000 nM,0.28,32.8 nM
"GI-1 (glioma, adherent)",0.616,1290 nM,0.92,> 16000 nM,0.76,6780 nM,0.342,5.95 nM,0.941,> 2000 nM,0.884,> 2000 nM

# A lower IC50 marks a more sensitive line; a limit (>, <) means that the fit lies beyond the doses tested. For AUC the same curve is integrated over the 256-fold range of doses and scaled to a fraction: 1 means no effect, lower means more sensitive. For part of these data: Where the top dose is marked as inferred, it was derived from the fitted curves, not read from the paper.
